Laboratory results: PMC8580143, “Frontotemporal Lobar Dementia Mutant Tau Impairs Axonal Transport through a Protein Phosphatase 1γ-Dependent Mechanism” (The Journal of Neuroscience, 2021)

Assays:
Details in all cases: partners not purified
[1] = target: T1, HaloTag-protein phosphatase 1 beta (UniProt P62140); assay: pull-down; HaloTag-based pull-down: tau-NanoLuc and Halo-PP1 (or HaloTag only) co-expressed in HEK293T; lysate (1% Triton X-100, 150 mM NaCl, pH 7.5) on HaloLink resin 1 h; eluted tau blotted (R1 antibody) and normalised to the change in Halo signal; n = 4
T1 construct: protein phosphatase 1 catalytic subunit, beta isoform; In nBRET the HaloTag carries the 618 ligand (acceptor fluorophore); also called Halo-PP1β; PP1β; source: HEK293T, transfected (pCMV), in lysate (pull-down) or in living cells (nBRET); not shown: HaloTag, N-terminal, kept

[2] = target: T2, HaloTag-protein phosphatase 1 alpha; assay: as above
T2 construct: protein phosphatase 1 catalytic subunit, alpha isoform; In nBRET the HaloTag carries the 618 ligand (acceptor fluorophore); also called Halo-PP1α; PP1α; source: HEK293T, transfected (pCMV), in lysate (pull-down) or in living cells (nBRET); not shown: HaloTag, N-terminal, kept

[3] = target: T3, HaloTag-protein phosphatase 1 gamma 1; assay: as above
T3 construct: protein phosphatase 1 catalytic subunit, gamma isoform, splice form PP1γ1; In nBRET the HaloTag carries the 618 ligand (acceptor fluorophore); also called Halo-PP1γ; PP1γ; source: HEK293T, transfected (pCMV), in lysate (pull-down) or in living cells (nBRET); not shown: HaloTag, N-terminal, kept

[4] = target: T2, HaloTag-protein phosphatase 1 alpha; assay: FRET or BRET; nBRET in living HEK293T cells at a single acceptor:donor DNA ratio of 100:1, four independent replicates; corrected ratio in mBU; Halo-only controls gave 5.168-5.814 mBU
[5] = target: T3, HaloTag-protein phosphatase 1 gamma 1; assay: as above

Binder	tau in the pull-down elution, normalised to the change in Halo signal [1]	tau in the pull-down elution, normalised to the change in Halo signal [2]	tau in the pull-down elution, normalised to the change in Halo signal [3]	corrected nBRET ratio at acceptor:donor DNA 100:1 [4]	corrected nBRET ratio at acceptor:donor DNA 100:1 [5]
P301L mutant human tau (hT40, 2N4R) with C-terminal NanoLuciferase (natural protein, microtubule-associated protein tau, human, full-length hT40 (2N4R) isoform with the inherited FTLD mutation P301L; Point mutation made by site-directed mutagenesis; also called P301L tau; FTLD mutant tau; source: HEK293T, transfected (pCMV), in lysate (pull-down) or in living cells (nBRET); not shown: NanoLuciferase, C-terminal, kept) not shown	0.061 ratio of signal intensities, arbitrary units	0.673 ratio of signal intensities, arbitrary units	0.54 ratio of signal intensities, arbitrary units	20.4 mBU	20.4 mBU
R5L mutant human tau (hT40, 2N4R) with C-terminal NanoLuciferase (natural protein, microtubule-associated protein tau, human, full-length hT40 (2N4R) isoform with the inherited FTLD mutation R5L; Point mutation made by site-directed mutagenesis; also called R5L tau; FTLD mutant tau; source: HEK293T, transfected (pCMV), in lysate (pull-down) or in living cells (nBRET); not shown: NanoLuciferase, C-terminal, kept) not shown	–	0.107 ratio of signal intensities, arbitrary units	0.111 ratio of signal intensities, arbitrary units	10.2 mBU	8.94 mBU
